From the supplement of paper PMC11417369
± gives the standard deviation of the averaged measurements. The list shows a part of the results.

Tested on: PfAP2-LT AP2 domain (GST-tagged)
Assay: gcPBM binding intensity (ln(normalized median fluorescence intensity)); higher = stronger DNA binding
In short: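 Plasmodium falciparum DNA-binding domains carrying a GST tag were expressed in E. coli and applied for 1 h, at about 25 μg on average, to an Agilent 4 × 180k array. The array held primer-extended double-stranded 36-bp intergenic genomic probes together with negative controls, and binding took place in 1× PBS with 1% milk, 0.2 mg/ml BSA, 0.5% salmon testes DNA and 0.03% Triton X-100. An Alexa488 anti-GST antibody detected bound protein, and the array was scanned at 488 nm. Binding intensity is taken as the highest Masliner-normalised natural-log median intensity across replicate spots of either probe orientation.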

Sequence	gcPBM binding intensity (ln)
ATTATGAATTTTAATTGTACATTATTATAGAATGTA [XGTACX_site619]	8.51 ± 0.4
AGTTATTTTTATATTTCACACACATATACTTTTACA [CACACA_site9357]	9.35 ± 0.36
AATAATTCTTAAAGGTGTACAATATGTATATAAGAA [XGTACX_site595]	8.87 ± 0.6
GAGGGTATAATAAAAGCACACACAAAGATATAAATA [CACACA_site9087]	9.32 ± 0.45
CATGAATATTTATACATGCACACTAAAATAAAGAAT [CACACA_site2412]	9.03 ± 0.39
AAAAAATGCGACATGTGTACACATATATATATATAT [XGTACX_site1679]	9.81 ± 0.3
ACATTTTGTAAAGAATGTACATATATATATATATTC [XGTACX_site8004]	8.88 ± 0.36
TATATATATATATACACACACACACCCCAAAGCGTA [CACACA_site64]	10 ± 0.31
GAAAATATTACATACACGCACACATTAATATATTTA [CACACA_site2604]	9.21 ± 0.4
ATATATATATCAAAATGTACAAAAATAGAATTTAAA [XGTACX_site8292]	8.67 ± 0.41
CAGTAGTTTTTATGGGTGCAAAACATATATATAACA	8.79 ± 0.54
AATACATATGGGTGTACACATTATATATATATATAT [CACACA_site4601]	9.53 ± 0.26
AAACGGCTATTAAAATGTACATGTAAATATATTAAA [XGTACX_site918]	8.91 ± 0.54
ATCTTTTTACTTAATACACACACACCCAAAAAAAAA [CACACA_site8221]	9.39 ± 0.17
TACACCCACCAACACACACACACACTAATAAAAAAA [CACACA_site8060]	10.1 ± 0.44
AAAATTAAAATATCACGTACGAAGAAAAAATTAAGA [XGTACX_site6437]	8.83 ± 0.42
CCTTTCCTAGCACATGCACACAAAAAAAAAAAAAAA [CACACA_site8396]	8.9 ± 0.44
TATATATATATAGATGCATGCAATTACATATAACAA [TGCATGCA_site118]	9.13 ± 0.45
TTGTGTACATATTAAGTGCATATATATATATATATA	10.1 ± 0.42
AATAAATAGTAGTAGGTGCTACTATATTATATATAT [GTGCAC_site9452]	8.79 ± 0.47
TATGTAATAATAAACGGTACACTATATTGTATGAAA [XGTACX_site4648]	8.81 ± 0.36
GCATATGATGAGCATATAATCATAAGAAAAAAAAAA [CACACA_negctrl_site701]	8.67 ± 0.52
ATTTTCTATATCTTTCAACACACAAATTTTTTTTTC [CACACA_site7918]	8.85 ± 0.45
TACATCAAACAAGTATGTACATATATATATATATAT [XGTACX_site7415]	9.67 ± 0.11
TTTTATATCTACCTTTGTACATATTTATTTTTTTTA [XGTACX_site7872]	8.95 ± 0.5
